Laboratory results: PubChem BioAssay AID360 (National Center for Advancing Translational Sciences (NCATS), 2006)
About 550 (1.1%) of roughly 48,000 compounds were called active. Not shown: some 4% with an inconclusive outcome. Rule as the data show it: active = potency below about 15 µM; inconclusive = mostly about 16 µM to 33 µM; inactive = weaker than that. Some of the results follow.

Molecular target: Lysosomal acid glucosylceramidase (Homo sapiens) (UniProt P04062)
Experiment: Glucocerebrosidase;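 also: the screen sought inhibitors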
Details: purified enzyme, resorufin glucoside fluorescence (screen aimed at inhibitors), 20 min
In short: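 Compounds titrated against 0.2 nM normal enzyme, 30 uM resorufin beta-D-glucopyranoside substrate, citrate/phosphate buffer with taurocholate and tween-20, pH 5.9. Reaction ran 20 min at room temperature; fluorescence (Ex 548/Em 600) gave AC50.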
Potency is read from the fitted curve at half-maximal effect.

UniProt P04062, sequence (P04062 whole entry, looked up): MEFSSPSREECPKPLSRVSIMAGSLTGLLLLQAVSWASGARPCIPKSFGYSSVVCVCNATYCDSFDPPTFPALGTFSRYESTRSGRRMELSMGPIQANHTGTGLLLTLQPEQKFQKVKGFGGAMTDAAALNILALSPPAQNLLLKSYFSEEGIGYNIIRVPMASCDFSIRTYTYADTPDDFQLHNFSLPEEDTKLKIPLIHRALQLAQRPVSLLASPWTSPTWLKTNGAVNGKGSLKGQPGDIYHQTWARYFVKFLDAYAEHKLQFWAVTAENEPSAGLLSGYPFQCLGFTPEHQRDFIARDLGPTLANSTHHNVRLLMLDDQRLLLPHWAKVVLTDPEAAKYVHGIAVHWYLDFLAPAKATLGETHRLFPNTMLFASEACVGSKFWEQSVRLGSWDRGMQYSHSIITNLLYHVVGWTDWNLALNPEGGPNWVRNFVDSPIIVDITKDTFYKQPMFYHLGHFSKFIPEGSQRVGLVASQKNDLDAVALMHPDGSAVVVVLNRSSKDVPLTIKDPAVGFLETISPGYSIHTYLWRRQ

Potency, inactive:
O=C(C1CCCN(S(=O)(=O)c2ccccc2)C1)N1CCCc2ccccc21 (stereo not given) > 76.9 µM
COc1cc(OC)nc(NC(=O)CN2CCN(c3ccc(F)cc3)CC2)n1 > 76.9 µM
COc1ccc(-c2nnc(NC(=O)c3ccc(S(=O)(=O)N4COCC4(C)C)cc3)o2)cc1 > 76.9 µM
COc1ccc(CNC(=O)CCCNS(=O)(=O)c2cccc3nonc23)cc1 > 76.9 µM
O=C(CCC(=O)N(CC(=O)NC1CCCC1)Cc1ccc2c(c1)OCO2)Nc1ccccn1 > 76.9 µM
O=C(Cc1cccs1)Nc1cccc(C(=O)Nc2ccco2)c1 > 76.9 µM
Cc1ccccc1OCC(O)Cn1c(NCc2ccco2)nc2c1c(=O)n(C)c(=O)n2C (stereo not given) > 76.9 µM
O=C(COc1c(F)c(F)cc(F)c1F)NC(=O)NC1CCCC1 > 76.9 µM
O=C(CCn1c(=O)oc2ccccc21)Nc1ccon1 > 76.9 µM
Cc1cc(Cl)c(S(=O)(=O)NCc2cccnc2)cc1OCC(N)=O > 76.9 µM
CCN1C(=O)CC(n2c(C)nc3ccccc32)C1=O (stereo not given) > 76.9 µM
COc1cccc(-c2noc(C3CCCN(S(=O)(=O)c4cccc(Cl)c4C)C3)n2)c1 (stereo not given) > 76.9 µM
O=C(O)Cn1ccnc1 > 76.9 µM
O=S1(=O)Nc2c(ccc3cccnc23)-c2ccccc21 > 76.9 µM
CCOC(=O)c1ccc(NC(=O)C2CC2)cc1 > 76.9 µM
Cc1n[nH]c(=O)nc1NCC1CCCO1 (stereo not given) > 76.9 µM
COc1cc2c(cc1NC(=O)CN(C)Cc1nc3ccccc3c(=O)[nH]1)oc1ccccc12
CN(C)C(=O)c1ccc(Oc2ccc(C(=O)N(C)C)cc2)cc1 > 76.9 µM
O=C(Cc1cn2ccsc2n1)OCc1nc2ccccc2s1 > 76.9 µM
CCN(CC)C(=O)CSc1nnc2sc3ccccc3n12 > 76.9 µM
CCCCNc1nc2c(c(=O)[nH]c(=O)n2C)n1CCOc1ccccc1 > 76.9 µM
Cc1ccccc1NC(=O)N1CCCC(c2nc(-c3ccc(C(C)C)cc3)no2)C1 (stereo not given) > 76.9 µM
CC(C)[C@H](NC(=O)NCc1cccs1)C(=O)O > 76.9 µM
COc1ccc(N2CCn3c2nc2c3c(=O)n(CCc3ccccc3)c(=O)n2C)c(OC)c1 > 76.9 µM
Cn1c(=O)[nH]c(=O)c2c1nc(N1CCCCC1)n2CCOc1ccccc1 > 76.9 µM
COc1cc2cc(C(c3nnnn3C3CCCC3)N(C)C3CCCCC3)c(=O)[nH]c2cc1OC (stereo not given) > 76.9 µM
CCOC(=O)c1c(CN2CCCCC2)n(C)c2ccc(OC)c(S(=O)(=O)c3ccccc3)c12 > 76.9 µM
CC(=O)n1nc(-c2ccccc2)nc1NCc1ccc(F)cc1 > 76.9 µM
Cc1cc(C)c(NC(=O)C2CSCCS2)c(C)c1 (stereo not given) > 76.9 µM
Cc1nc(C)n(C(=O)N(c2ccccc2)c2ccccc2)n1 > 76.9 µM
CCC(=O)c1cc2c(cc1NC(=O)C(C)C)OCCO2 > 76.9 µM
Cc1noc(NS(=O)(=O)c2ccc(NC(=O)CSc3nc4ccccc4[nH]3)cc2)c1C
Cc1cnc(C)c(N2CCC(C(=O)NCc3cccs3)CC2)n1 > 76.9 µM
CC(C)CCn1c(NCCN(C)C)nc2c1c(=O)[nH]c(=O)n2C > 76.9 µM
O=C(c1cccs1)N1CCN(C(=O)N2CCOCC2)CC1 > 76.9 µM
O=C(Cc1ccccc1)Nc1ccc(CN2CCOCC2)cc1 > 76.9 µM
CC(=O)N1c2c(cc(Br)cc2S(=O)(=O)NCc2cccnc2)CC1C (stereo not given) > 76.9 µM
CCOC(=O)N1CCC(NC(=O)C(NC(=O)C2CCCCC2)C(C)C)CC1 (stereo not given) > 76.9 µM
Cc1cc(C)c(C)c(S(=O)(=O)NCC(=O)N2CCCC2)c1C > 76.9 µM
O=C(CSc1nc2ccccc2o1)N1CCN(C(=O)c2ccco2)CC1 > 76.9 µM
CCCCCC(=O)Nc1ccc2oc(-c3cccnc3)nc2c1 > 76.9 µM
CCOC(=O)c1cnc(SCC(=O)Nc2ccc(NC(=O)CC)c(OC)c2)nc1N > 76.9 µM
Cc1ccc(C(=O)CSc2nnc(COc3cc(C)cc(C)c3)o2)cc1 > 76.9 µM
CC(C)(C)c1nnc2sc(SCC(=O)c3cccs3)nn2c1=O > 76.9 µM
c1ccc(Cn2nnc3c(Nc4ccc5c(c4)OCO5)nc(C4CC4)nc32)cc1 > 76.9 µM
O=C(CSc1nccc(=O)[nH]1)N1c2ccccc2CCc2ccccc21 > 76.9 µM
COc1ccc(C2C3=C(CCCC3=O)Nc3nc(C(F)(F)F)nn32)c(OC)c1OC (stereo not given) > 76.9 µM
O=C(CSc1ncn[nH]1)c1ccc2c(c1)OCO2 > 76.9 µM
CCn1c(Cc2cccn2C)nnc1SCC(=O)c1ccc(C)cc1 > 76.9 µM
COc1ccc(N2CCCn3c2nc2c3c(=O)n(Cc3ccc(F)cc3)c(=O)n2C)c(OC)c1 > 76.9 µM
CCc1cccc(C)c1NC(=O)CSc1nc2ccccc2n1CC(=O)N(C)C > 76.9 µM
COc1ccc(C(=O)CSc2nnc(Cc3ccccc3)o2)cc1 > 76.9 µM
CCC(=O)Nc1nc(OC)cc(OC)n1 > 76.9 µM
CCCS(=O)(=O)N1CCN(Cc2ccc(OCc3ccccc3)c(OC)c2)CC1 > 76.9 µM
O=C(COC(=O)c1ccccc1O)Nc1ccc(OC(F)F)cc1 > 76.9 µM
COC(=O)c1nnn(-c2nonc2N)c1CSc1nc2ccccc2s1 > 76.9 µM
CCCCOC(=O)CCn1c(=S)oc2ccccc21 > 76.9 µM
COc1ccc(NC(=O)CN2CCN(CC(=O)Nc3ccc4c(c3)OCO4)CC2)cc1 > 76.9 µM
CCOC(=O)N1CCC(c2nc3ccccc3[nH]2)CC1 > 76.9 µM
Cc1c(C(=O)Nc2ccc(N3CCOCC3)cc2)oc2ccccc12 > 76.9 µM
CCCOc1ccc(N2CC(C(=O)Nc3ncccc3C)CC2=O)cc1 (stereo not given) > 76.9 µM
O=C(Cn1c(=O)oc2cc(S(=O)(=O)N3CCCC3)ccc21)Nc1ccc(C(F)(F)F)cc1 > 76.9 µM
N#Cc1ccccc1OCC(=O)OCC(=O)c1ccc2c(c1)NC(=O)CO2 > 76.9 µM
CC1=CC2=NC(=O)CC(C)(C(=O)N(CC(=O)NC(C)(C)C)C3CCCC3)N2C=C1 (stereo not given) > 76.9 µM
O=C(NC1CCCCC1)c1ccc(CS(=O)(=O)Cc2ccccc2F)o1 > 76.9 µM
CCN=C1SC(CC(=O)Nc2ccccc2)C(=O)N1CC (stereo not given) > 76.9 µM
Cc1nc2ncnn2c(C)c1CCC(=O)N1CCN(C(=O)c2ccco2)CC1 > 76.9 µM
CCOC(=O)C1=C(C)NC(C)=C(C(=O)OCC)C1C(=O)OCC(=O)N1CCC(C)CC1 > 76.9 µM
NC(=O)CSc1nc(-c2ccccc2Cl)ns1 > 76.9 µM
c1ccc2nc(N3CCOCC3)c(N3CCOCC3)nc2c1 > 76.9 µM
Cc1ccc(C2CC(C(F)(F)F)n3nc(C(=O)NCC4CCCO4)cc3N2)cc1 (stereo not given) > 76.9 µM
CC(=O)NC(NC(C)=O)c1ccc(Br)cc1 > 76.9 µM
CC(C)(C)n1nnnc1C(c1ccccc1)N1CCc2ccccc2C1 (stereo not given) > 76.9 µM
O=C(OCc1nc2ccccc2c(=O)[nH]1)c1cccs1 > 76.9 µM
Cc1ccccc1Nc1nc(N)nc(CSc2nnnn2-c2ccccc2)n1 > 76.9 µM
O=C(NCC1CCCO1)C(C(=O)c1ccccc1)n1ccccc1=O (stereo not given) > 76.9 µM
CCOC(=O)C1=C(C)NC(=O)NC1c1ccc(F)cc1 (stereo not given) > 76.9 µM
CCOc1ccccc1NC(=O)CCCc1nc2ccccc2c(=O)[nH]1 > 76.9 µM
CCOc1ccc2[nH]c(=O)c(CN(Cc3ccc(F)cc3)C(=O)c3ccco3)cc2c1 > 76.9 µM
CCOc1cc(C)c(Cl)cc1S(=O)(=O)NCC1CCCO1 (stereo not given) > 76.9 µM
Cc1cccc(-n2ccnc2SCC(=O)Nc2nccs2)c1 > 76.9 µM
COc1ccc(C2C(C(=O)N3CCN(c4ccc(OC)cc4)CC3)c3ccccc3C(=O)N2C)cc1 (stereo not given) > 76.9 µM
CCOC(=O)CNC(=O)C(Cc1ccccc1)NS(=O)(=O)c1cccs1 (stereo not given) > 76.9 µM
O=C1CC(N2CCOCC2)C(=O)N1c1ccc2c(c1)OCO2 (stereo not given) > 76.9 µM
Cn1c(Oc2ccccc2NCc2cc(Br)ccc2O)cc(=O)n(C)c1=O > 76.9 µM
O=C(CSc1nn(-c2ccc(Cl)cc2)c(=S)s1)N1CCN(C(=O)c2ccco2)CC1 > 76.9 µM
CCNC(=O)NC(=O)COC(=O)c1ccccc1SCC(=O)NC(=O)NCC > 76.9 µM
CN(Cc1ccccc1)C(=O)Nc1ccccc1 > 76.9 µM
CCOc1ccc(C(=O)Nc2ccc3c(c2)OCCO3)cc1OC > 76.9 µM
Cc1cccc(CS(=O)(=O)Cc2ccc(C(=O)NCc3ccco3)o2)c1 > 76.9 µM
